From PubChem BioAssay AID686979 (National Center for Advancing Translational Sciences (NCATS), 2013)
Where “and” joins values, the source holds several entries; their conditions need not be identical. Equal values may be shown once. Among all 420,000 compounds or so, about 50,000 (12%) were called active. Inconclusive results, whose numbers are uncertain, are shown with a selection of clear calls. Calls follow the shape of the dose curve; as a rule, active = well fitted inhibition curve with a large enough effect; inconclusive = small, poorly fitted or top-dose-only effect; inactive = flat fitted curve, though single readings scatter. Potencies of inconclusive entries are doubtful fits and often do not repeat.

Experiment: qHTS for Inhibitors of human tyrosyl-DNA phosphodiesterase 1 (TDP1): qHTS in cells in presence of CPT; also: nearly all actives have a fitted effect of over 55% in size
Settings: chicken DT40 Tdp1-/-;hTDP1 cells + 20 nM CPT, ATP luminescence, 48 h; activity change, negative = growth inhibition: at 46.2 µM (top of the series)
Summary of the method: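 Chicken DT40 Tdp1-/- cells stably complemented with human TDP1 were seeded at 400 cells/well in medium containing 20 nM camptothecin, exposed to pin-transferred compounds, and grown at 37 °C for at least 48 hr. Viability was read as ATP luminescence.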
% is scaled to controls: 0 for no effect and ±100 for the full control effect; potency is read from the fitted curve at half-maximal effect; tags tell the direction and shape of the fitted curve.

Row | SMILES | Potency | activity change, negative = growth inhibition
1 | O=C(c1cccc(Cl)c1)N(Cc1cccc(F)c1)C1CCS(=O)(=O)C1 (configuration not stated) | inactive | 
2 | NC(=O)c1c(NC(=O)CS(=O)(=O)c2ccc(Cl)cc2)sc2c1CCCC2 | inconclusive: 23.1 µM [inhibitor, single point] | 
3 | O=[N+]([O-])c1ccc(/C=C/C2=NN(c3ccccc3)C(c3ccco3)C2)o1 (configuration not stated) | inconclusive: 14.6 µM [inhibitor, single point] | 
4 | N#Cc1cccc(NC(=O)c2nc(-c3ccccc3)n(-c3ccccc3)n2)c1 | inconclusive: 29.1 µM [inhibitor, single point] | 
5 | OCC1(CO)CC2(C1)CC(CO)(CO)C2 | inactive | 
6 | COc1ccc(NC(=O)C2CCCN(S(=O)(=O)c3ccc4[nH]c(=O)ccc4c3)C2)cc1Cl (configuration not stated) | inconclusive: 25.9 µM [inhibitor, single point] | 
7 | Cc1ccc(S(=O)(=O)NCc2ccncc2)cc1 | active: 4.11 µM | 
8 | COC(=O)c1cc2sccc2n1Cc1c(C)cc(C)cc1C | inactive | 
9 | COc1ccc(Br)cc1/C=N/Nc1ccccn1 | inconclusive: 9.2 µM [inhibitor, single point] | 
10 | C#CCN(CC=C)C(=O)c1cccc(OC2CCN(S(C)(=O)=O)CC2)c1 | inactive | 
11 | NC(N)=NS(=O)(=O)c1ccc(NC(=S)NC(=O)c2ccc3c(c2)OCO3)cc1 | inactive | 
12 | CC(=O)c1c(O)cc(C(C)C)n(-c2ccccc2)c1=O | inactive | 
13 | COc1cccc(/C=N/NC(=O)c2ccc(=O)n(C)c2)c1OC | inactive | 
14 | CC12CCC(C/C1=N\N=C1\NC(=O)/C(=C\c3cccc(Br)c3)S1)C2(C)C (configuration not stated) | inconclusive: 29.1 µM [inhibitor, single point] | 
15 | C=CCc1ccc(OCCOCCOc2cccc3ccc(C)nc23)c(OC)c1 | active: 17.8 µM | 
16 | COc1cccc(-c2nccc(NCc3ccccc3)n2)c1 | inconclusive: 29.1 µM [inhibitor, single point] | 
17 | CCc1ccc(N2CC(C(=O)Nc3nc4ccc(S(C)(=O)=O)cc4s3)CC2=O)cc1 (configuration not stated) | inactive | 
18 | Cc1cc(/C=C/c2ccccc2)nc2ccccc12 | inconclusive: 35.5 µM [inhibitor, single point] | 
19 | O=[N+]([O-])c1ccc(-c2cnc[nH]2)cc1 | inactive | 
20 | O=C(CCc1nc2ccccc2c(=O)[nH]1)NCc1ccco1 | inconclusive: 20.6 µM [inhibitor, single point] | 
21 | CCOC(=O)C1C(=O)C=C(c2cccs2)CC1c1ccccc1 (configuration not stated) | inconclusive: 23.1 µM [inhibitor, single point] | 
22 | CC(C)N1CCc2c(sc(NC(=O)CCS(=O)(=O)c3ccccc3)c2C(N)=O)C1 | inconclusive: 25.9 µM [inhibitor, single point] | 
23 | O=C(C1CCCCN1S(=O)(=O)c1ccccc1)N1CCCCC1 (configuration not stated) | inconclusive: 11.6 µM [inhibitor, partial curve] | 
24 | C[C@@H]1CCC2[C@@H](C)[C@@H](O)O[C@@H]3O[C@@]4(C)CC[C@@H]1[C@@]23OO4 (some centres not stated) | active: 0.0411 µM | 

Row | SMILES | Potency | activity change, negative = growth inhibition
25 | Cc1ccc(S(=O)(=O)N2CCN(S(=O)(=O)c3ccccc3Br)C2=O)cc1 | inconclusive: 18.4 µM [inhibitor, single point] | 
26 | CC(=O)Oc1ccc(C(=O)Nc2ccc(C3(C#N)CCCC3)cc2)cc1 | active: 16.4 µM | 
27 | COC(=O)[C@@]1(Cc2ccc(OC)cc2)[C@H]2c3cc(C(=O)N4CCCC4)n(CCc4ccc(OC)c(Br)c4)c3C[C@H]2CN1C(=O)c1ccccc1 | active: 14.6 µM | 
28 | Cc1cc(C)nc(Nc2n[nH]c(COc3ccc(Cl)cc3)n2)n1 | inconclusive: 25.9 µM [inhibitor, single point] | 
29 | O=C(CCNC(=O)c1ccccc1Cl)Nc1nc2ccccc2s1 | inactive | 
30 | CC1(C)CC(=O)C=C(c2ccc(COC(=O)c3ccc(-c4ccccc4)cc3)cc2)C1=O | inconclusive: 25.9 µM [inhibitor, single point] | 
31 | Nc1c(C(=O)NC2CCCC2)c2nc3ccccc3nc2n1N | inconclusive: 29.1 µM [inhibitor, single point] | 
32 | O=c1[nH]c2cc(Cl)ccc2c(O)c1-c1cccc(Oc2ccccc2)c1 | inconclusive: 18.4 µM [inhibitor, single point] | 
33 | COCCn1c(N)c(N(Cc2ccccc2)C(=O)C(C)Oc2ccc(Br)cc2)c(=O)[nH]c1=O (configuration not stated) | inactive | 
34 | Oc1ccccc1-c1nc(NC2CCCC2)c2ccccc2n1 | inactive | 
35 | Cc1ccc(S(=O)(=O)CCC(=O)c2ccc(F)cc2)cc1 | active: 4.11 µM | 
36 | Cc1ccc(S(=O)(=O)N2CCN(CC(=O)NC3CCCc4ccccc43)CC2)cc1C (configuration not stated) | inconclusive: 29.1 µM [inhibitor, single point] and inconclusive: 11.6 µM [inhibitor, partial curve] | 
37 | C=C(C)C1CC=C(C)/C(=N/NC(=O)c2ccccc2[N+](=O)[O-])C1 (configuration not stated) | inconclusive: 8.2 µM [inhibitor, partial curve] | 
38 | Cc1ccc(-c2noc(-c3ccccc3OCC(=O)Nc3ccccc3[N+](=O)[O-])n2)cc1 | inactive | 
39 | Cc1ccc(S(=O)(=O)Nc2c(C)n(C)n(-c3ccccc3)c2=O)cc1C(=O)NCc1ccccc1 | inconclusive: 29.1 µM [inhibitor, single point] | 
40 | COc1ccccc1C(=O)NC(CCSC)C(=O)Nc1ccc(C)c(S(=O)(=O)N2CCOCC2)c1 (configuration not stated) | inconclusive: 18.4 µM [inhibitor, single point] | 
41 | Cc1ccccc1NC(=O)c1c(C)oc2ccc(O)c(CN(C)Cc3ccccc3)c12 | active: 8.2 µM | 
42 | CCC(C)n1c(SCC(=O)Nc2cc(C(C)(C)C)nn2-c2ccccc2)nc2ccccc2c1=O (configuration not stated) | inconclusive: 29.1 µM [inhibitor, single point] | 
43 | CCN1C(=O)C(Cc2nc3ccccc3c(=O)n2-c2cccc(C)c2)c2ccccc21 (configuration not stated) | inconclusive: 29.1 µM [inhibitor, single point] | 
44 | O=C(COc1cccc(C(F)(F)F)c1)NNC(=O)c1ccc(=O)[nH]c1 | inactive | 
45 | CCCCCOc1ccc(C(=O)OC(C)C(=O)NCc2ccco2)cc1 (configuration not stated) | inconclusive: 23.1 µM [inhibitor, single point] | 
46 | O=C(c1c(F)c(F)c(F)c(F)c1F)N(Cc1ccccc1)Cc1ccccc1 | inconclusive: 29.1 µM [inhibitor, single point] | 
47 | CCCC(=O)N1c2nc(-c3ccco3)nn2C2(CCCCC2)[C@@H]2CCCC[C@@H]21 | inconclusive: 8.2 µM [inhibitor, partial curve] | 
48 | Cc1ccc(F)cc1S(=O)(=O)Nc1cccc(C(=O)N2CCCC(C(N)=O)C2)c1 (configuration not stated) | inactive | 

Row | SMILES | Potency | activity change, negative = growth inhibition
49 | Cc1ccsc1/C=N/n1c(=S)[nH]nc(C)c1=O | active: 16.4 µM | 
50 | CCCCCn1c(CCCNC(=O)c2ccccc2)nc2ccccc21 | active: 23.1 µM | 
51 | O=C(Nc1ncc(Cc2ccc(F)cc2)s1)c1ccc2c(c1)CC(c1ccccc1)OC2=O (configuration not stated) | inconclusive: 20.6 µM [inhibitor, single point] | 
52 | Cc1ccc(C(=O)N/N=C\c2ccc([N+](=O)[O-])s2)cn1 | active: 10.3 µM | 
53 | COc1ccc(OCCCCOc2ccccc2Cl)cc1 | inactive | 
54 | O=C(O)c1ccc(NCc2cccs2)cc1 | inactive | 
55 | CC(C)N(c1ccccc1)c1ccc(NC(=O)[C@@H]2O[C@H](CO)[C@@H](O)[C@H]2O)cc1 | active: 20.6 µM | 
56 | Cc1ccc(-c2noc(CN(C(=O)c3cccs3)C(C)C)n2)cc1 | inconclusive: 16.4 µM [inhibitor, single point] | 
57 | Cc1nn(C)c2c1c(C(F)(F)F)cc(=O)n2CC(=O)Nc1ccc(F)cc1F |  | inconclusive: -31.7% [inhibitor]
58 | O=C1CCN(C(=S)NCCc2ccccc2)CC1 | inactive | 
59 | Cc1ccc(S(=O)(=O)N2CCC(CN3C(=O)c4cccc5cccc(c45)C3=O)CC2)cc1 | inconclusive: 29.1 µM [inhibitor, single point] | 
60 | CCN(CCCNC(=O)CCc1nc(-c2ccc(C)cc2)no1)c1cccc(C)c1 | inconclusive: 29.1 µM [inhibitor, single point] | 
61 | O=C(O)C[C@H](O)C[C@H](O)/C=C/c1c(C2CC2)nc2ccccc2c1-c1ccc(F)cc1 | active: 2.66 µM | 
62 | COCCNC(=S)N/N=C/c1c(C)[nH]c2ccccc12 | inconclusive: 29.1 µM [inhibitor, single point] | 
63 | CCN1C(=O)/C(=C\N(C(C)=O)c2ccccc2)OC1=S |  | inconclusive: -33.9% [inhibitor]
64 | CCOC(=O)c1cnc2c(ccc3ccccc32)c1NCCN(C)C | inconclusive: 29.1 µM [inhibitor, single point] | 
65 | CC(=O)NCC(=O)N1CCCC(C(=O)c2ccc(-c3ccccc3)c(F)c2)C1 (configuration not stated) | inactive | 
66 | CCNC(=O)O/N=C(\C)c1sc(-c2ccccc2)nc1C |  | inconclusive: -30.9% [inhibitor]
67 | CCOc1ccc(C(=O)Nc2ccc3c(c2)OCO3)cc1OCC | inactive | 
68 | COCC(=O)n1nc(-c2ccc(Cl)cc2)nc1NCc1ccc(F)cc1 | inconclusive: 18.4 µM [inhibitor, single point] | 
69 | COc1ccccc1CNC(=O)C(NC(=O)c1ccc(C)cc1)C(C)C (configuration not stated) | inconclusive: 29.1 µM [inhibitor, single point] | 
70 | O=C(NCc1ccccn1)c1cc(-c2ccc(-c3ccccc3)cc2)nc2ccccc12 | active: 16.4 µM | 
71 | COc1cccc(/C(O)=C/c2nc3ccc(C(=O)NCCc4cccc(C)c4)cc3[nH]c2=O)c1 | inactive | 
72 | COc1ccc([N+](=O)[O-])cc1NC(=O)Nc1ccc(OC)c(OC)c1 | inconclusive: 23.1 µM [inhibitor, single point] | 
